Test results taken from PubChem BioAssay AID624417 (National Center for Advancing Translational Sciences (NCATS), 2012).
Out of some 410,000 compounds screened, about 6,400 (1.6%) were called active. This list was built around the results that the source calls inconclusive (neither active nor inactive); the mix of calls is not that of the screen. Calls follow the shape of the dose curve; as a rule, active = well fitted inhibition curve with a large enough effect; inconclusive = small, poorly fitted or top-dose-only effect; inactive = no such curve, though single readings can be large or run the other way. No potency is given beside an inconclusive call; the fits are too rough.

What follows are molecules tested against Glucagon-like peptide 1 receptor (Homo sapiens) (UniProt P43220) (assay: qHTS of GLP-1 Receptor Inverse Agonists (Inhibition Mode)). Conditions: HEK293 GLP-1R CRE-luciferase, luminescence, 24 h, GLP-1R form is constitutively active; activity change, negative = inhibition: at 38.3 µM (top of the series) unless noted.
Chain of UniProt P43220 (P43220 whole entry, looked up): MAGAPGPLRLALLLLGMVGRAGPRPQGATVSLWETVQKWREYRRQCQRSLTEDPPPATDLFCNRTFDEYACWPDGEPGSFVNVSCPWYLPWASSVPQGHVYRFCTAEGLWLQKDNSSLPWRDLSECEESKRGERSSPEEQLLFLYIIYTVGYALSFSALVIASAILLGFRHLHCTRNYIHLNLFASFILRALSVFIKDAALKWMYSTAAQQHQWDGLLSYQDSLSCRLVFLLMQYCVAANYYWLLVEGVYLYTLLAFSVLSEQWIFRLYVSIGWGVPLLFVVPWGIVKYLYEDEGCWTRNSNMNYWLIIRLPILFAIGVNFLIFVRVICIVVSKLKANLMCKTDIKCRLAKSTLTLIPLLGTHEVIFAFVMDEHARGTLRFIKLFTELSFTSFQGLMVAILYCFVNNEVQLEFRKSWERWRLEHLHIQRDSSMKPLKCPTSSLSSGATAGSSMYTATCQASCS
Procedure, shortened: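 Stable HEK293 clone (constitutively active GLP-1R + cAMP-response luciferase); 200 cells/uL plated, 12 h pre-culture, compound 24 hr, 37 deg C/5% CO2; detection reagent 12 min RT; luminescence.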
% is scaled to controls: 0 for no effect and ±100 for the full control effect; potency is read from the fitted curve at half-maximal effect; tags tell the direction and shape of the fitted curve.
Also: nearly all actives have a fitted effect of over 55% in size.

Row | Structure (SMILES) | Potency | activity change, negative = inhibition
1 | Cc1ccc(NC(=O)C2CCCN(S(=O)(=O)c3c(C)noc3/C=C/N(C)C)C2)cc1F (centres undefined) | inconclusive [inhibitor, partial curve, poor fit] | 
2 | CCOC(=O)c1c(N)sc(C(O)(C(F)(F)F)C(F)(F)F)c1-c1ccccc1 | inconclusive [inhibitor, single point] | 
3 | Cc1ccc(NC(=O)c2c(NC(=O)C(F)(F)F)sc3c2CCCCC3)cc1 | inconclusive [inhibitor, full curve, poor fit] | 
4 | CCN(CC)CCNC(=O)c1ccc(NC(=O)c2ccc(F)cc2)cc1 | inactive | 
5 | O=C(Cn1c(-c2cccs2)cc2ccccc21)NCCCN1CCN(c2ccccc2F)CC1 | inactive | 
6 | O=C(CSc1nnc(COc2ccccc2)o1)Nc1cc(C(F)(F)F)ccc1Cl | inactive | 
7 | Cc1ccc2nc(C)cc(C(=O)N3CCCC(N4CCN(c5ccccc5C)CC4)C3)c2c1 (centres undefined) | inconclusive [inhibitor, full curve] | 
8 | CCc1cccc(CC)c1NC(=O)COC(=O)c1ccccc1-c1nc2ccccc2s1 | inconclusive [inhibitor, full curve] | 
9 | COc1ccc(NC(=O)Nc2nnc(N(CC(C)C)CC(C)C)s2)c(OC)c1 | inconclusive [inhibitor, single point] | 
10 | O=C(CN1C(=O)NC2(CCCC2)C1=O)OCc1ccc(Cl)cc1Cl | inconclusive [inhibitor, single point] | 
11 | O=C(CSc1nc2ccccc2s1)Nc1ccc(Cl)c(C(=O)O)c1 | inactive | 
12 | CCC1(C)Cc2ccccc2-c2nc3n(c(=O)c21)CCCCC3 (centres undefined) | inconclusive [inhibitor, single point] | 
13 | O=C(COC(=O)c1ccccc1Nc1cccc(C(F)(F)F)c1)NCc1ccco1 | inconclusive [inhibitor, partial curve] | 
14 | Cc1ccc(N2C(=O)NC(NC(=O)C3CC3)(C(F)(F)F)C2=O)cc1 (centres undefined) | inactive | 
15 | CCOC(=O)C1=C(CC)Nc2ccccc2N=C1NC(=O)c1ccc(S(=O)(=O)N2CCCC2)cc1 | inconclusive [inhibitor, partial curve, poor fit] | 
16 | Cc1ccccc1-c1nc(P(=O)(c2ccccc2)c2ccccc2)c(N2CCOCC2)o1 | inconclusive [inhibitor, single point] | 
17 | Cc1ccccc1NC(=O)CSc1ccc(-c2cccs2)nn1 | inconclusive [inhibitor, single point] | 
18 | O=C(CCS(=O)(=O)c1cccc2nonc12)Nc1ccc(Br)cc1 | inconclusive [inhibitor, partial curve, poor fit] | 
19 | Cc1ccc(CCNC(=O)c2c(C)nn(-c3ccc(F)cc3)c2-n2cccc2)cc1 | active: 6.31 µM | 
20 | Cc1ccc(NS(=O)(=O)c2ccc(-c3cc(C)no3)cc2)c(Br)c1 | inconclusive [inhibitor, partial curve, poor fit] | 
21 | C/C(=N\NC(=O)c1ccccc1)c1ccccc1F | inactive | 
22 | O=C(NC1CCCC1)C(c1ccncc1)N(Cc1ccccc1)C(=O)c1ccc(-c2ccccc2)[nH]1 (centres undefined) | inconclusive [inhibitor, single point] | 

Row | Structure (SMILES) | Potency | activity change, negative = inhibition
23 | O=C(Nc1ccc(Cc2ccncc2)cc1)c1ccc(S(=O)(=O)N2CCCC2)cc1 | inconclusive [inhibitor, partial curve, poor fit] | 
24 | NC(=O)c1ccccc1OCCOc1ccc(Br)cc1 | inconclusive [inhibitor, full curve] | 
25 | COc1cccc(/C=C/C(=O)NCC2CCCCC2)c1 | inconclusive [inhibitor, partial curve, poor fit] | 
26 | Cc1ccc(C=C(C#N)C(=O)c2ccccc2)cc1 | inactive | 
27 | CC(C)(C)N(Cc1nc(-c2ccccc2)no1)C(=O)c1ccc2c(c1)OCO2 | inconclusive [inhibitor, partial curve, poor fit] | 
28 | COc1ccc(-c2noc(CNC(=O)c3ccc4c(c3)OCO4)n2)cc1 | inconclusive [inhibitor, full curve] | 
29 | Cc1ccccc1C(=O)Oc1ccc(Cl)cc1C(=S)N1CCOCC1 | inconclusive [inhibitor, partial curve, poor fit] | 
30 | Cc1ccc(-n2nnnc2SCC(=O)Nc2ccc(N3CCN(C)CC3)cc2)c(C)c1 | active: 3.55 µM | 
31 | Cc1ccc(C)c(OCC(=O)NC2CCCCCC2)c1 | inconclusive [inhibitor, single point] | 
32 | O=C(Nc1cccc(-c2ccc(N3CCCCC3)nn2)c1)c1ccco1 | inconclusive [inhibitor, partial curve] | 
33 | Cc1csc(-c2cnn(-c3ccccc3)c2NC(=O)c2cccc(C(F)(F)F)c2)n1 | inconclusive [inhibitor, single point] | 
34 | FC(F)(F)c1cnc(-c2cnc(-c3ccccn3)nc2)c(Cl)c1 | inconclusive [inhibitor, single point] | 
35 | O=C1N(c2ccccc2C(F)(F)F)O[C@@]1(c1ccccc1)C1CCCCC1 | inconclusive [inhibitor, partial curve, poor fit] | 
36 | Clc1ccc2[nH]c3c(NCCN4CCOCC4)ncnc3c2c1 | inactive | 
37 | O=C(Nc1cccc(NC(=O)c2ccccc2Cl)c1)c1cccs1 | inconclusive [inhibitor, single point] | 
38 | COc1ccc(C(=O)NNc2ccccc2)cc1OC | inconclusive [inhibitor, full curve, poor fit] | 
39 | CCCCOC(=O)C(C#N)c1nc2ccccc2nc1N1CCOCC1 (centres undefined) | inconclusive [inhibitor, partial curve] | 
40 | COC(=O)[C@@]1(Cc2ccc(F)cc2)[C@H]2c3cc(C(=O)N4CCCC4)n(CC4CC4)c3C[C@H]2CN1C(=O)c1ccccc1 | inconclusive [inhibitor, partial curve, poor fit] | 
41 | COc1cccc(NC(=O)c2ccccc2NS(C)(=O)=O)c1 | inconclusive [inhibitor, single point] | 
42 | COc1ccc(/C=N/NC(=O)c2nc(-c3ccccc3)n(-c3ccccc3)n2)c(O)c1 | inconclusive [inhibitor, single point] | 
43 | CC(C)CC(=O)Nc1c(C(=O)N2CCN(Cc3ccccc3)CC2)oc2ccccc12 | inconclusive [inhibitor, single point] | 
44 | COc1cccc(OCC(=O)Nc2ccccc2-c2ccccc2)c1 | inconclusive [inhibitor, single point] | 

Row | Structure (SMILES) | Potency | activity change, negative = inhibition
45 | CC(C)CCN1CCN(Cc2nc(-c3ccccc3)cs2)CC1CCO (centres undefined) | inconclusive [inhibitor, partial curve, poor fit] | 
46 | Cc1cc(C)nc(/N=C(\N)Nc2ccc3c(c2)OCCO3)n1 | inconclusive [inhibitor, partial curve, poor fit] | 
47 | CCCCCC(=O)N1C[C@H](O)[C@@H](n2cc(COC(=O)c3ccccc3)nn2)C[C@@H]1c1ccccc1 | inconclusive [inhibitor, partial curve, poor fit] | 
48 | CC(C)c1ccc(-n2c(-c3ccccc3)c[n+]3c2CCc2ccccc2-3)cc1 | inconclusive [inhibitor, partial curve, poor fit] | 
49 | COc1ccc(OCC(=O)Nc2ccc(-c3nc4cc(C)c(C)cc4o3)cc2)cc1 | inactive | 
50 | CC(C)N(Cc1ccccc1)C(=O)CN1C(=O)CSc2ccc(S(=O)(=O)N3CCCC3)cc21 | inactive | 
51 | Cc1c(C(=O)N2CCC(C)CC2)c(S(=O)(=O)Nc2ccc(OC(F)(F)F)cc2)c(C)n1C | inconclusive [inhibitor, single point] | 
52 | CCCCCN(C(=O)CCC(=O)OCc1cc(C)ccc1C)c1c(N)n(CCCC)c(=O)[nH]c1=O | inconclusive [inhibitor, single point] | 
53 | CN(C)S(=O)(=O)N(CC(=O)NCCSc1ccccc1)c1ccccc1 | inactive | 
54 | Cc1ccc2nc(C3CCCCC3)c(Cc3ccsc3)n2c1 | inconclusive [inhibitor, partial curve, poor fit] | 
55 | COc1ccccc1-c1nnc2sc(-c3cc4ccccc4o3)nn12 | inconclusive [inhibitor, full curve, poor fit] | 
56 | O=S(=O)(Oc1ccc(Cl)cc1)c1cccc2cccnc12 | inconclusive [inhibitor, single point] | 
57 | Cc1cc(Nc2cc(F)ccc2C)nc(-n2nc(C)cc2C)n1 | inconclusive [inhibitor, single point] | 
58 | O=C(Nc1cccc(F)c1)c1cc(S(=O)(=O)N2CCOCC2)cs1 | inconclusive [inhibitor, partial curve, poor fit] | 
59 | Cc1ccc(-n2c(-c3cc(-c4ccco4)[nH]n3)n[nH]c2=S)c(Br)c1 | inactive | 
60 | O=C(Nc1ccccc1)c1ccccc1N=Cc1cccc(O)c1 | inconclusive [inhibitor, full curve, poor fit] | 
61 | Cc1cc(=O)oc2cc(OCC(=O)OCC(=O)Nc3ccccc3F)ccc12 |  | inactive: 15.6% [at 7.66 µM]
62 | S=C(c1ccc(-c2ccc(Br)cc2)o1)N1CCOCC1 | inconclusive [inhibitor, single point] | 
63 | Brc1ccc(-c2nc3ccc(Br)cn3c2Cc2ccccc2)cc1 | inactive | 
64 | CC(C)=CCc1c(O)cc2c(c1O)C(=O)CC(c1ccccc1)O2 (centres undefined) | inconclusive [inhibitor, full curve, poor fit] | 
